Laboratory results taken from PubChem BioAssay AID743279 (National Center for Advancing Translational Sciences (NCATS), 2014).
Hit rate of the full screen: of about 360,000 compounds, about 17,000 (4.7%) were called active. Inconclusive results, whose numbers are uncertain, are shown with a selection of clear calls. Cut-off read from the data, not from the text of the source: active = activity change below about -50%; inconclusive = mostly about -30% to -49%; inactive = weaker than that.

Assay: qHTS for Inhibitors of Inflammasome Signaling: IL-1-beta AlphaLISA Primary Screen
Details: THP-1 LPS/ATP IL-1B secretion, 16 h; at 57.5 µM, hits give low values
How it was run: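 Secreted IL-1B measured by AlphaLISA bead assay after 16 h compound exposure of THP-1 cells; compounds (final up to 57.5 uM) added 1 h before LPS (250 ng/mL) and ATP (1.25 mM) stimulation; lower signal means less secretion.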
% is set by controls: 0 for no effect and ±100 for the full control effect.

Activity change, inconclusive:
C#CCn1c(S(=O)(=O)Cc2ccc(C)cc2)nc(-c2ccccc2)c1-c1ccccc1 -37.1%
CN1CCN(c2nc3c(c(=O)[nH]c(=O)n3C)n2Cc2ccc(Cl)cc2)CC1 -48.1%
Cc1ccc(C(=O)N/N=C\c2ccc(-c3ccc(Cl)c(Cl)c3)o2)cn1 -30.9%
CN(C)c1ccc(C(=O)Nc2cccc(S(=O)(=O)N3CCCC3)c2)cc1 -32.4%
CCCCCN(C(=O)CCC(=O)OCC(=O)c1ccc(CCC)cc1)c1c(N)n(CCCC)c(=O)[nH]c1=O -33.9%
Cc1ccc(Cl)cc1-c1cc(C(=O)NCc2cc(C(F)(F)F)cc(C(F)(F)F)c2)[nH]n1 -40.5%
COc1ccc(Cn2nnnc2C(c2ccccc2Cl)N2CCN(C3CCCC3)CC2)cc1 (centres undefined) -34.3%
COc1ccc(C2=NN(C(=O)CSc3cn(C)c4ccccc34)C(c3ccc(OC)cc3)C2)cc1 (centres undefined) -31.5%
Cn1cccc1CN1CCC[C@]2(N[C@H](c3ccc(C(F)(F)F)cc3)[C@@H]3C(=O)N(Cc4ccccc4)C(=O)[C@@H]32)C1=O -38.9%
CCCc1c(-c2cccc(Cl)c2)ncn1Cc1ccccc1OC -33.2%
O=C(Nc1ccc(N2CCOCC2)c(Cl)c1)c1ccc2c(c1)OCCO2 -38.8%
Cc1cccc(C(=O)NC2CCN(S(=O)(=O)c3ccc(F)cc3)CC2)c1 -41.6%
S=C(c1c[nH]c2ccc(Br)cc12)N1CCOCC1 -44.3%
CCN(CC)c1ccc(/C=N/OCC(=O)N2CCCc3ccccc32)cc1 -32%
CC1Cc2ccccc2N1C(=O)COC(=O)c1c2c(nc3ccccc13)CCCCC2 (centres undefined) -44.9%
CC(=O)N(C)c1ccc(NC(=O)Nc2ccc(C)c(C)c2)cc1 -41%
OCc1ccccc1OCCCN1CCC(Cc2ccccc2)CC1 -49%
CN1CCc2c(sc3c2C(=O)NC(c2ccccn2)N3)C1 (centres undefined) -35.2%
CC(C)(C)n1nc2c(c1NC(=O)COc1ccc3ccccc3c1)CS(=O)(=O)C2 -32.5%
O=C1CN(C(=O)/C=C/c2ccc(Cl)cc2)c2ccccc2N1 -43.1%
COc1cccc(CNC(=O)CCN2C(=O)[C@@H]3Cc4ccccc4CN3C2=O)c1 -33.9%
c1nc(SSc2ncnc3nc[nH]c23)c2[nH]cnc2n1 -36.2%
CC(=O)Nc1ccc(-c2nc3ccccc3o2)cc1 -47%
COc1ccc(-c2csc3nc(-c4ccccc4)oc(=O)c23)cc1OC -46.7%
CC(=O)Nc1cccc(Nc2nc(-c3ccccc3)nc3ccccc23)c1 -33.7%
COc1ccc(NC(=O)C2C(c3ccccc3)C2(Cl)Cl)c(OC)c1 (centres undefined) -32.8%
Cc1cc(C)n(-c2ccc(C(=O)Nc3ccc4c(c3)OCCO4)cc2)n1 -39.2%
CCOC(=O)c1oc2ccc(CNCCO)c(Cl)c2c1C -34.6%
CCCCC[C@H]1CCCCC[C@H](O)C[C@@H](O)[C@H](O)/C=C/C(=O)O1 -34%
Cc1ccccc1NC(=O)CSc1ccsc1[N+](=O)[O-] -43.8%
C=CCC[C@H](Cc1ccc(F)cc1)C(=O)OC[C@@H](NC(=O)[C@@H](CC=C)CC(=O)N(CCO)Cc1ccccc1)C(C)(C)C -46.2%
CCC(C)NCCOCCOc1cc(C)c(Cl)c(C)c1 (centres undefined) -39.9%
Cc1ccc(OCCOCCOc2cccc3cccnc23)c(Br)c1 -41.1%
CS(=O)(=O)N(CC(=O)Nc1ccccc1Sc1ccccc1)c1ccc(F)cc1 -32.1%
COc1ccccc1NC(=O)c1ccccc1Nc1ccccc1 -32.6%
Cn1cc(CN2CCCCC2CO)c(-c2ccc(Oc3ccccc3)cc2)n1 (centres undefined) -41.4%
CC(=O)c1ccc(NC(=O)C(C)N(C)CC(=O)Nc2ccc(Cl)cc2)cc1 (centres undefined) -33.9%
C[C@H](CO)N1C[C@H](C)[C@@H](CN(C)S(=O)(=O)c2ccc(F)cc2)Oc2c(NC(=O)Nc3ccc4c(c3)OCO4)cccc2C1=O -30.5%
COc1ccc(NC(=S)N2CCCN(Cc3cc(C)ccc3C)C2)cc1 -30.1%
O=C(c1ccc(Oc2ccccc2)cc1)C1CCCN(C(=O)c2cnccn2)C1 (centres undefined) -34.2%
CCCCCCCNC(=O)C1(CC2CC(c3ccc(Cl)cc3)=NO2)CCN(C(=O)C2(C)CC2)CC1 (centres undefined) -39.2%

Activity change, inactive:
CC(C)CN(C(=O)CN(C)C(=O)Cc1ccccc1Cl)c1c(N)n(CC(C)C)c(=O)[nH]c1=O 11.3%
O=C1c2oc3ccc(F)cc3c(=O)c2C(c2ccccc2)N1CC1CCCO1 (centres undefined) -14.2%
C=CCNC(=S)Nc1cccc2[nH]ncc12 20.7%
Cc1noc(C)c1CSc1nc2[nH]ncc2c(=O)n1-c1ccccc1 17.9%
Cc1ccc(Cl)c(NC(=O)COC(=O)c2nn(-c3ccccc3)cc2O)c1Cl 31.7%
COc1ccccc1NC(=O)N(Cc1ccco1)Cc1cc2cccc(C)c2[nH]c1=O -11.7%
Cn1nccc1C(=O)N/N=C/c1c(O)ccc2ccccc12 286%
Cc1ccc(NC(=O)c2ccc(S(=O)(=O)N3CC(C)CC(C)C3)cc2)cc1S(=O)(=O)N1CCOCC1 (centres undefined) -22.3%
Cc1ccc(C(=O)c2cc([N+](=O)[O-])ccc2N2CCCCC2)cc1C 0%
Fc1cccc(-n2c(-c3ccco3)nc3nc4ccccc4nc32)c1 -0.0697%
CCc1ccc(C(=O)COC(=O)CNC(=O)c2cccs2)cc1 20.9%
COc1ccccc1NC(=O)Nc1nc2ccc(S(N)(=O)=O)cc2s1 -18.5%
Cc1ccc(C)c(NC(=S)Nc2cccc3cnccc23)c1 31.7%
O=C1CN(C(=O)CN2CCN(S(=O)(=O)c3ccccc3F)CC2)c2ccccc2N1 20.9%
C[C@H](NC(=O)c1nc[nH]c1C(=O)N[C@@H](Cc1ccccc1)C(=O)OC(C)(C)C)C(=O)OC(C)(C)C -10.8%
O=C(NCCCN1CCOCC1)C1CCN(S(=O)(=O)c2ccccc2)CC1 13%
Cc1nn(-c2nc3ccccc3[nH]2)c(N)c1-c1ccc(Cl)cc1 -27.4%
COC(=O)c1ccccc1NC(=O)CN1CCN(C23CC4CC(CC(C4)C2)C3)CC1 7.25%
CC(C)[C@H](NC(N)=O)C(=O)Nc1cccc([N+](=O)[O-])c1 0%
COCc1nc2ccccc2n1Cc1ccccc1C -5.74%
C=C(C)Cn1c(C2CC(=O)N(c3ccccc3F)C2)nc2ccccc21 (centres undefined) -11.7%
COc1ccc(/C=C2\SC(=S)N(CCCC(=O)Nc3ccccn3)C2=O)cc1OC 3.25%
N#CC1=C(N)OC2=C(CCc3ccccc32)C1c1ccccc1 (centres undefined) 13%
CCN(CC)C(=O)C1=C(C)N(CCCN2CCCC2=O)C(=O)C(CC(=O)NCc2cccc3ccccc23)C1 (centres undefined) 9.35%
COc1ccc(/C=N\N=C2/SC(CC(=O)O)C(=O)N2c2ccc(O)cc2)cc1 (centres undefined) -5.43%
CC(C)NC(=O)CCCOc1ccc(Cl)cc1Cl -7.11%

Activity change, active:
Cc1ccc(-c2nc(CSCC(=O)NC3CCN(Cc4ccccc4)CC3)c(C)o2)cc1 -64.8%
CCCCNc1nnc(SCC(=O)N2CCN(S(=O)(=O)c3ccc4ccccc4c3)CC2)s1 -54.4%
Cc1nc2cc(C(=O)OCC(=O)NC34CC5CC(CC(C5)C3)C4)ccc2n1-c1ccccc1 -65.9%
COc1ccc(C(=O)/C=C/c2cccc(OCc3ccccc3)c2)cc1CSCC(=O)O -86.3%
CCn1c(=O)c(C(=O)CN(C)Cc2ccc(F)cc2)c(N)n(Cc2ccccc2)c1=O -63.3%
COc1ccc(C(=O)/C=C/c2ccccc2F)c(OC(=O)c2ccc([N+](=O)[O-])cc2)c1 -101%
C=CC[C@@H](CC(=O)N(CCO)Cc1ccccc1)C(=O)N[C@H](COC(=O)[C@@H](CC=C)CC(=O)OC(C)(C)C)Cc1c[nH]c2ccccc12 -55.7%
Cc1nc(N/N=C/c2ccc(O)cc2)c2cnn(-c3ccccc3)c2n1 -74.3%
CCOc1ccc(NC2=C(OC)C(=O)c3ccccc3C2=O)cc1 -83.3%
CCN(CC)CCNC(=O)c1ccc(NC(=O)c2ccc(C(=O)c3ccccc3)cc2)cc1 -68.8%
O=C(Cn1ncc(Cl)c(Cl)c1=O)N1CCOCC1 -99%
CC1NC(=O)NC1CCCCCC(=O)Nc1ccc(F)c(Cl)c1 (centres undefined) -116%
COc1ccc(-c2csc(N(CCCN(C)C)C(=O)c3ccc(C)cc3)n2)cc1 -78.7%
CC(C)n1c(/C=C/c2ccccc2)nc2ccccc21 -78.1%
O=C(Nc1ccc(O)cc1)c1ccccc1OCc1ccccc1 -71.4%
C=C(C(=O)c1ccccc1)C(C(=C)C(=O)c1ccccc1)c1ccc(OC)cc1 -61.4%
Cc1ccc(NC(=O)CSc2nnc(-c3ccoc3C)n2CCCN(C)C)cc1Cl -60.8%
